According to the supplement of paper PMC12217912:
The other results are listed elsewhere or left out. The full chains were built here from the parent and the listed change. Values near 0.05 are background.

B1: TEV protease; numbered along this chain (parent)
chain: MGESLFKGPRDYNPISSSICHLTNESDGHTTSLYGIGFGPFIITNKHLFRRNNGTLVVQSLHGVFKVKDTTTLQQHLVDGRDMIIIRMPKDFPPFPQKLKFREPQREERICLVTTNFQTKSMSSMVSDTSCTFPSGDGIFWKHWIQTKDGQCGSPLVSTRDGFIVGIHSASNFTNTNNYFTSVPKNFMELLTNQEAQQWVSGWRLNADSVLWGGHKVFMVKPEEPFQPVKEATQL

Variants of: B1
Experiment: raw area under fraction-flipped curve 0-4 h after induction (AUC4h, not background-subtracted), DNA-recorder readout of cleavage of the substrate (dimensionless); higher = more cleavage of the substrate by the protease variant
Conditions: temperature: 34 °C; time window: 0-4 h after rhamnose induction
Procedure: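 In vivo DNA recorder in E. coli TOP10(DE3) ΔrhaA at 34 °C. Each TEVp single-site mutant (parent TEVp 0) is paired with a single-site variant of the 7-mer TEVs (canonical ENLYFQ|S). The substrate sits between flexible linkers in a Bxb1-sfGFP-TEVs-SsrA fusion, so cleavage stabilises Bxb1 and speeds flipping of a recombination array, read by NGS. The value is the raw area under the fraction-flipped curve over 0-4 h after rhamnose induction (AUC4h), with ≥20 reads per time point. It is not background-subtracted; inactive controls average about 0.047.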
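Also: Bxb1 expression induced with 0.2% (w/v) L-rhamnose at OD600 near 0.5, cultures sampled hourly, flipped fraction per protease–substrate barcode pair counted by paired-end Illumina sequencing.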

Row | Variant | area with substrate ENLYAQS | area with substrate ENLYEQS | area with substrate ENLYIQS | area with substrate ENLYKQS | area with substrate ENLYMQS | area with substrate ENLYNQS | area with substrate ENLYQQS | area with substrate ENLYSQS | area with substrate ENLYWQS | area with substrate ENLYDQS | area with substrate ENLYHQS | area with substrate ENLYLQS | area with substrate ENLYRQS | area with substrate ENLYVQS | area with substrate ENLYGQS | area with substrate ENLYPQS | area with substrate ENLYTQS | area with substrate ENLYYQS | area with substrate ENLYCQS
1 | G2M | 0.0537 | 0.0543 | 0.15 | 0.103 | 0.0994 | 0.0649 | 0.0714 | 0.0561 | 0.0828 |  |  |  |  |  |  |  |  |  | 
2 | S4R | 0.0718 | 0.0736 |  | 0.0599 | 0.159 | 0.074 | 0.0719 | 0.0482 |  | 0.0591 | 0.069 | 0.102 | 0.0803 | 0.165 |  |  |  |  | 
3 | R10G | 0.0763 | 0.0663 | 0.0996 | 0.0389 | 0.0748 | 0.0572 | 0.0529 | 0.0621 | 0.077 | 0.0726 | 0.0653 | 0.0864 | 0.0604 | 0.126 | 0.0612 | 0.0778 | 0.0798 | 0.0593 | 
4 | R10V | 0.0609 | 0.0665 | 0.0922 | 0.0913 | 0.0714 | 0.0641 | 0.052 |  | 0.0484 |  | 0.0746 | 0.0749 | 0.067 |  | 0.0698 | 0.0739 |  | 0.0636 | 0.063
5 | D11L | 0.0645 | 0.0639 | 0.0878 | 0.0568 | 0.0704 | 0.0641 | 0.0582 | 0.0767 | 0.0706 | 0.0542 | 0.0627 |  | 0.0641 | 0.0828 | 0.0629 | 0.069 | 0.102 | 0.0623 | 0.073
6 | D11S | 0.0766 | 0.0651 | 0.129 | 0.0664 | 0.122 | 0.0718 | 0.0638 |  | 0.0856 | 0.0649 | 0.0927 |  | 0.0585 | 0.135 | 0.0601 | 0.0714 | 0.131 |  | 0.0869
7 | Y12H | 0.1 | 0.0663 | 0.132 | 0.0632 | 0.124 | 0.0724 | 0.0688 |  | 0.068 |  | 0.0656 | 0.0902 | 0.0561 | 0.136 | 0.0684 | 0.068 | 0.113 | 0.0651 | 0.102
8 | Y12S | 0.0748 | 0.0902 | 0.102 | 0.0548 | 0.0922 | 0.0742 | 0.0274 | 0.0704 | 0.0651 | 0.057 | 0.0616 | 0.0841 | 0.0646 | 0.113 |  | 0.0732 | 0.0723 | 0.092 | 
9 | Y12W | 0.0669 | 0.072 | 0.124 | 0.0538 | 0.0751 | 0.0797 |  | 0.0716 | 0.0642 | 0.0593 | 0.0666 |  | 0.0573 | 0.107 | 0.0639 | 0.0722 | 0.0783 | 0.0669 | 
10 | N13R | 0.0946 | 0.0681 |  | 0.0646 | 0.0859 | 0.0644 | 0.0575 | 0.0925 | 0.0767 | 0.0624 | 0.0675 | 0.0886 | 0.0562 | 0.0907 | 0.0927 | 0.0725 | 0.0709 | 0.0617 | 
11 | P14C | 0.0974 | 0.0802 | 0.102 | 0.0561 | 0.0653 | 0.0612 | 0.0569 |  | 0.0832 | 0.0614 | 0.0713 | 0.0853 | 0.07 | 0.11 | 0.0789 | 0.075 | 0.0756 | 0.0617 | 0.071
12 | P14W | 0.079 | 0.0653 | 0.155 | 0.0644 | 0.0827 | 0.0704 | 0.06 | 0.0691 | 0.0815 | 0.0594 | 0.0596 |  | 0.0614 | 0.157 | 0.0767 | 0.0722 |  | 0.0661 | 
13 | I15C | 0.0648 | 0.0612 | 0.118 |  | 0.0788 | 0.0636 | 0.0532 | 0.0663 | 0.0807 | 0.0602 | 0.061 |  | 0.0562 |  | 0.0724 | 0.0833 |  | 0.068 | 
14 | I15S | 0.116 | 0.0652 | 0.102 | 0.0611 | 0.057 | 0.0419 | 0.0572 | 0.0639 | 0.0923 | 0.0543 | 0.051 | 0.0681 | 0.0537 | 0.104 | 0.058 | 0.0698 | 0.0921 | 0.0599 | 
15 | S17D | 0.0734 | 0.0656 | 0.171 | 0.0666 | 0.0783 | 0.0663 | 0.0651 | 0.0924 | 0.0737 | 0.0625 | 0.0606 | 0.122 | 0.0575 | 0.114 | 0.0644 | 0.0711 | 0.0732 | 0.063 | 0.114
16 | S17F | 0.0547 | 0.0607 |  | 0.0564 | 0.0672 | 0.0539 | 0.0724 | 0.0577 | 0.0796 | 0.0585 | 0.0664 |  |  | 0.0936 | 0.0804 |  | 0.0756 |  | 0.0612
17 | S17Q | 0.0765 | 0.0778 | 0.146 | 0.0906 | 0.0742 | 0.0691 | 0.0589 | 0.0866 | 0.0664 |  | 0.0715 | 0.0736 |  | 0.116 | 0.086 | 0.0694 | 0.0536 | 0.0709 | 
18 | S18K | 0.0644 | 0.065 | 0.108 | 0.0435 | 0.0933 | 0.0568 | 0.0574 | 0.0638 | 0.077 | 0.0613 | 0.03 | 0.0682 |  | 0.0938 |  | 0.0554 |  |  | 
19 | S18R | 0.0824 | 0.0608 | 0.123 | 0.0593 | 0.0869 | 0.0543 | 0.0541 | 0.0451 | 0.064 | 0.0482 | 0.0588 | 0.157 | 0.0723 | 0.0972 |  | 0.0627 | 0.0785 | 0.0536 | 0.0538
20 | I19H | 0.0614 | 0.0552 |  | 0.0728 | 0.0697 | 0.0475 | 0.0569 | 0.0402 | 0.0568 | 0.0603 | 0.0586 | 0.066 | 0.0823 | 0.108 |  | 0.057 | 0.0673 | 0.0619 | 0.0753
21 | C20M | 0.0715 | 0.0634 | 0.118 | 0.0654 | 0.0409 |  | 0.062 | 0.0842 |  | 0.0611 | 0.072 | 0.0769 | 0.0446 |  | 0.0699 | 0.0649 |  | 0.0467 | 0.096
22 | C20R | 0.0431 | 0.0396 | 0.0515 | 0.0383 | 0.0417 | 0.0489 |  | 0.0485 | 0.0371 |  | 0.0488 | 0.0349 |  | 0.0492 | 0.04 | 0.0456 | 0.043 | 0.0393 | 0.0413
